Results taken from PubChem BioAssay AID485281 (National Center for Advancing Translational Sciences (NCATS), 2010).
The campaign covered roughly 350,000 compounds. About 260 (0.074%) were called active. Inconclusive means that the source gave no clear call. Such entries were picked first, then a sample of the others. Calls come from the whole dose curve; as a rule, active = well fitted inhibition curve with a large enough effect; inconclusive = small, poorly fitted or top-dose-only effect; inactive = no such curve, though single readings can be large or run the other way. Potencies of inconclusive entries are doubtful fits and often do not repeat.

target: Ferritin light chain (Equus caballus) (UniProt P02791); experiment: qHTS Assay for Identification of Novel General Anesthetics; settings: apoferritin/1-aminoanthracene competitive binding, fluorescence; activity change, negative = displacement: at 77.5 µM (top of the series); note: nearly all actives have a fitted effect of over 20% in size
Outline: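 Concentration-response curves derived by four-parameter Hill fitting of normalized fluorescence, where compounds displaced 1-AMA from 10 uM horse apoferritin following a brief 10 min room-temperature incubation; propofol titration acted as positive control.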
% is set by controls: 0 for no effect and ±100 for the full control effect; potency is the fitted concentration of half-maximal effect; tags give direction and shape of the fitted curve.

Sequence of UniProt P02791 (P02791 whole entry, looked up): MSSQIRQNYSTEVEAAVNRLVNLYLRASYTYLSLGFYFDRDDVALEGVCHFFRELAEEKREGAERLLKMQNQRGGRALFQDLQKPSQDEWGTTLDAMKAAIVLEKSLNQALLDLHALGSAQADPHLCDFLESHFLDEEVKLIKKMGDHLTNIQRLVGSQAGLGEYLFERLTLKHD

| Compound | Potency | activity change, negative = displacement |
| --- | --- | --- |
| CCC1CSC(=Nc2ccc(C)cc2)N1C(=O)CN1C(=O)NC2(CCCC2)C1=O (stereo not given) | inconclusive: 28.2 µM [inhibitor, partial curve] | – |
| CCC(C(=O)Nc1ccc(C(=O)OC)cc1)n1nc(-c2ccc(C)cc2)c2c(c1=O)CCCC2 (stereo not given) | inconclusive: 3.16 µM [inhibitor, single point] | – |
| CCOc1cc(C2Nc3ccccc3-c3nnc(SCc4ccccc4)nc3O2)ccc1OC (stereo not given) | inconclusive: 39.8 µM [inhibitor, single point] | – |
| C=CCOC(=O)C1CC=CCC1C(=O)Oc1ccc(F)cc1F (stereo not given) | inconclusive: 20 µM [inhibitor, partial curve] | – |
| OC[C@H]1OC(O)(CN2CCOCC2)[C@H](O)[C@@H]1O (stereo not given in full) | – | inactive: -3.63% |
| COc1ccc(-c2cc(-c3ccccc3O)[nH]n2)cc1 | inconclusive: 31.6 µM [inhibitor, partial curve] | – |
| O=C(Cn1nnc(-c2ccc(Cl)cc2)n1)NCC1CCCCC1 | inconclusive: 6.31 µM [inhibitor, full curve, poor fit] | – |
| O=C(Nc1ccc(N=Nc2ccccc2)cc1)c1ccccc1Cl | – | inactive: -17.9% |
| OCCCCNCc1ccc(OCc2ccccc2Cl)cc1 | inconclusive: 12.6 µM [inhibitor, partial curve] | – |
| N/C(=N\OS(=O)(=O)c1ccc(Br)cc1)c1ccncc1 | – | inactive: -7.36% |
| Cc1cc(NCc2ccccn2)nc2ccccc12 | inconclusive: 12.6 µM [inhibitor, partial curve] | – |
| CC(C)(C)C(=O)COC(=O)CCc1nc2ccccc2[nH]c1=O | inconclusive: 35.5 µM [inhibitor, single point] | – |
| O=C(Nc1ccc(OCc2ccccc2)cc1)c1cccnc1 | inconclusive: 1.58 µM [inhibitor, full curve, poor fit] | – |
| Cc1nn(CCOc2ccccc2)c(=O)n1-c1ccccc1 | inconclusive: 28.2 µM [inhibitor, partial curve] | – |
| COc1cc2c(cc1OC)C(COc1ccc(F)cc1)N(C(=O)c1cccc(F)c1)CC2 (stereo not given) | – | inactive: -6.31% |
| Cc1nc2nc(SCC(=O)Nc3ccccc3Cl)nn2c(C)c1Cc1ccccc1 | – | inactive: -11.5% |
| CC1(c2cccc(Br)c2)NC(=O)N(CC(=O)Nc2ccc(F)cc2)C1=O (stereo not given) | inconclusive: 14.1 µM [inhibitor, partial curve] | – |
| C=CC[n+]1c(-c2ccc(OCC)cc2)csc1NNC(=O)Nc1ccccc1 | inconclusive: 17.8 µM [inhibitor, partial curve] | – |
| Nc1nnc(SCc2cc3c(cc2Cl)OCO3)s1 | inconclusive: 31.6 µM [inhibitor, partial curve] | – |
| N/C(Cc1ccc(Cl)cc1Cl)=N\OC(=O)c1ccccc1F | – | inactive: -12.6% |
| Cc1cc(N(CCO)Cc2ccccc2)n2nc(-c3ccc(C(C)(C)C)cc3)nc2n1 | inconclusive: 44.7 µM [inhibitor, single point] | – |
| CCCCOC(=O)Nc1cccc(C(C)=O)c1 | inconclusive: 31.6 µM [inhibitor, partial curve] | – |
| O=C(CSc1ccc(-c2ccccn2)nn1)Nc1cccc(F)c1 | inconclusive: 14.1 µM [inhibitor, partial curve] | – |

| Compound | Potency | activity change, negative = displacement |
| --- | --- | --- |
| Fc1ccc(OCc2nnc(-c3ccccc3Br)o2)c(Cl)c1 | – | inactive: -19.1% |
| CC12COC3(C(=O)Nc4cccnc4)CC1CCC32C (stereo not given) | inconclusive: 31.6 µM [inhibitor, partial curve] | – |
| Nc1nc(CCl)nc(Nc2ccc3ccccc3c2)n1 | inconclusive: 35.5 µM [inhibitor, partial curve] | – |
| O=C(CSc1ncccn1)NC(=O)c1ccccc1 | – | inactive: -1.05% |
| Cc1[nH]n2c(=O)c3c(nc2c1-c1ccc(Cl)cc1)CCC3 | – | inactive: 7.15% |
| CC(NC(=O)Cn1nc(-c2ccccc2)c2ccccc2c1=O)c1ccccc1 (stereo not given) | active: 14.1 µM | – |
| CC(/C=N/NC(=O)c1nn(C)c(C)c1Br)=C\c1ccccc1 | inconclusive: 56.2 µM [inhibitor, single point] | – |
| CN(C)S(=O)(=O)c1ccc(NC(=O)COC(=O)C2COc3ccccc3O2)cc1 (stereo not given) | inconclusive: 31.6 µM [inhibitor, single point] | – |
| Cc1ccoc1C(=O)Nc1cccc2ccccc12 | inconclusive: 39.8 µM [inhibitor, partial curve] | – |
| CCCCn1c(/N=C/c2c[nH]c3ccccc23)nc2ccccc21 | inconclusive: 25.1 µM [inhibitor, partial curve] | – |
| CC(C)N(C(=O)Cn1cc(SCC(N)=O)c2ccccc21)C(C)C | inconclusive: 22.4 µM [inhibitor, partial curve] | – |
| COc1ccc(N(Cc2cccs2)C(=O)Nc2cccc(Cl)c2)cc1 | – | inactive: -1.09% |
| CCCn1c(=O)c2c(nc3n2CCCN3CCc2ccc(OC)c(OC)c2)n(C)c1=O | – | inactive: -11.3% |
| Cc1ccc(C(=O)c2cn(Cc3ccccc3C)c3nc(C)ccc3c2=O)cc1 | inconclusive: 17.8 µM [inhibitor, partial curve] | – |
| Cc1ccc(Nc2nnc(SCC(=O)Nc3cccc(S(=O)(=O)N4CCCCC4)c3)s2)cc1 | inconclusive: 3.98 µM [inhibitor, full curve, poor fit] | – |
| CCN(CC)c1ccc(NC(=O)CN2CCN(c3ccc(F)cc3)CC2)cc1 | inconclusive: 11.2 µM [inhibitor, partial curve] | – |
| CC1CCCC(NC(=O)CCCn2c(=O)[nH]c3cc(Cl)ccc3c2=O)C1C (stereo not given) | inconclusive: 14.1 µM [inhibitor, partial curve] | – |
| O=C(Nc1ccc(Sc2ccc(Br)cc2)cc1)c1ccco1 | inconclusive: 8.91 µM [inhibitor, partial curve] | – |
| O=C(CCl)N(c1ccccc1)C1CCS(=O)(=O)C1 (stereo not given) | – | inactive: -4.86% |
| O=[N+]([O-])c1cccc(Cl)c1CSc1ccccn1 | inconclusive: 31.6 µM [inhibitor, partial curve] | – |
| CC(=O)c1cccc(NC(=O)CN2C(=O)NC3(CCCCCCC3)C2=O)c1 | inconclusive: 25.1 µM [inhibitor, partial curve, poor fit] | – |
| CCN(CC)C(=O)CSc1nc2sc3c(c2c(=O)n1-c1ccc(C)cc1)CC(C)(C)SC3 | inconclusive: 22.4 µM [inhibitor, partial curve] | – |
